# Laboratory results as given in article PMC3547949, “The Immunosuppressive Agent Mizoribine Monophosphate Is an Inhibitor of the Human RNA Capping Enzyme” (PLoS ONE, 2013).
# System: HEK 293T cells
# Assay: Inhibition of mRNA cap formation in cells (firefly luciferase reporter)
# Settings: 40 µM and 120 µM mizoribine; versus HCE-K294A-HA, GFP and control cells
compound,measurement,value
NC(=O)c1ncn([C@@H]2O[C@H](CO)[C@@H](O)[C@H]2O)c1O [mizoribine],reporter gene translation in cells over-expressing HCE-WT-HA,partially rescued
